{"source": "PubChem BioAssay AID1918930", "about": "(Molecular Pharmacology Branch, DTP, NCI, 2023)", "test_system": "233499-124-R-J3-PDC complex spheroid viability, % test/control", "experiment": "Anticancer human tumor 233499-124-R-J3-PDC patient-derived colon adenocarcinoma cell line growth inhibition", "settings": "for IC50: compound alone; for viability, T/C: stronger effect = lower value", "from_the_text": "Multicellular complex tumor spheroid response to LSD1 Inhibitor Iadademstat in combination with a variety of drugs and investigational agents in selected tumor cell lines\nThe current study was undertaken to assess response to LSD1 inhibitors in combination with standard-of-care drugs and investigational agents in solid tumor complex spheroid models as well as in the K-562 leukemia. Complex spheroids include a stromal component modeled by human endothelial cells (HUVEC) and fibroblasts modeled by human mesenchymal stem cells (MSCs). The concentration ranges selected for each drug and investigational agent were based upon clinically achievable concentrations if the clinical Cmax of the agent was known.\nCompounds. The drugs and investigational agents used in this study are listed on Table 1. All of the agents used, including staurosporine (NSC755774) and gemcitabine (NSC613327), were obtained from the Developmental Therapeutics Program, NCI. FDA-approved anticancer drugs are available from the NCI at http://dtp.nci.nih.gov/branches/dscb/oncology_drugset_explanation.html. Drugs and investigational agents were >95% pure by proton nuclear magnetic resonance (NMR) and liquid chromatography/mass spectrometry (LC/MS). Stock solutions were prepared at 400x in DMSO, stored at -70 degrees C, and diluted in fresh medium prior to their use. The final concentration of DMSO in cell culture wells never exceeded 0.25% (v/v). The FDA-approved anticancer drug set is available from the Developmental Therapeutics Program at https://dtp.cancer.gov/organization/dscb/obtaining/available_plates.htm. All drugs and investigational agents were tested over a range starting from a high concentration at or near the clinical Cmax and decreasing in half-log increments. If the clinical Cmax for an agent had not been determined, the highest concentration tested was 10 microM.\nCell Lines. The patient-derived cancer cell (PDC) lines: 292921-168-R-J2-PDC, K24384-001-R-PDC, and 521955-158-R2-J5-PDC pancreatic carcinomas, 556581-035-R-J1 ovarian carcinoma, 324938-238-R-J1-PDC, 855422-203-R-J1-PDC and 883617-216-R-J1-PDC urothelial bladder carcinomas, 743489-274-T-PDC renal cell carcinoma, 138582-R-J1 Merkel cell tumor, K60290-347-R-J1 and K57222-313-R-J1-PDC glioblastomas, 653999-131-R-J2-PDC, LG0703-F948-PDC, and 349418-098-R-PDC non-small cell lung carcinomas, 885512-296-R-J2-PDC, 171881-019-R-J1-PDC breast carcinomas and 186277-243-T-J2-PDC and 233499-124-R-J2-PDC colon carcinomas were obtained from the NCI Patient-Derived Models Repository (PDMR, https://pdmr.cancer.gov). The established cell lines NCI/ADR-RES (RRID:CVCL_14520 and OVCAR-5 (RRID:CVCL_1628) ovarian carcinomas, 786-O (RRID:CVCL_1051) and A498 (RRID:CVCL_A498) renal cell carcinoma, NCI-H211 (ATCC, cat. CRL-5824; RRID:CVCL_1529), NCI-H196 (ATCC, cat. CRL-5823, RRID:CVCL_1509), SW 1271 (ATCC, cat. CRL-2177, RRID:CVCL_1716) and NCI-H1876 (ATCC, cat. CRL-5902, RRID:CVCL_1503) small cell lung carcinomas, MDA-MB-231 (RRID:CVCL_0062) and MDA-MB-468 (RRID:CVCL_0419)breast carcinomas (10-12). Pooled donor human umbilical vein endothelial cells (HUVEC, Lonza, cat. CC-2519) and human mesenchymal stem cells (hMSC, Lonza, cat. PT-2501) were purchased from Lonza (Walkersville, MD).\nCell Culture. All cells were maintained in an incubator at 37 degrees C and 5% CO2 with 95% humidity. The PDC lines were cultured according to standard operating procedures established by the NCI PDMR (https://pdmr.cancer.gov). Briefly all PDCs were thawed and cultured in Matrigel-coated flasks prepared with a working solution of 1X Ham's F-12 nutrient mix, without supplementation (Invitrogen, Waltham, MA, cat. 11765054), 100 U/mL penicillin-streptomycin (Invitrogen, cat. 15140122), and 2.5% Matrigel (Corning Inc., Corning, NY, cat. 354248) for the first three passages. […]", "note": "Certain results were filed several times, with different values. The list is limited to them. The source may hold further records. The values listed for one entry are repeated measurements (runs, samples, wells, individuals or studies). Brackets with × count equal records among those shown. A date in brackets names the month of the test.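 Also: spheroids exposed to agents for one week before readout.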"}
{"smiles": "Nc1ccn(C2OC(CO)C(O)C2(F)F)c(=O)n1", "note": "(stereo not drawn)", "values": [{"measurement": "IC50", "value": "1.28 nM [2022-01] and 89.8 nM [2022-02]"}]}
{"smiles": "NC1CC1c1ccc(-c2cccc(O)c2)cc1", "note": "(stereo not drawn)", "values": [{"measurement": "viability, T/C", "setting": "compound alone 0.316 µM", "value": "102, 104 (2×), 92.6, 99.5, 110, 103 (3×), 82.3, 106, 93.8, 95.3, 107, 98, 97, 101, 91.3, 112, 91.5, 92.4, 96, 81.8, 90.7%"}, {"measurement": "viability, T/C", "setting": "compound alone 1 µM", "value": "91.3 (2×), 97.7, 97.4, 99.5, 95.1, 106, 95.8, 89.2, 94, 89.8, 103, 105, 96.7, 102, 86.4, 97, 104, 80.1, 93.6, 83.3, 82.5, 85.4, 90.3, 99.4%"}, {"measurement": "viability, T/C", "setting": "compound alone 3.16 µM", "value": "82.9, 87.5, 85.3, 88.5, 94.3, 93, 81.4, 85.5, 92.1, 101, 84.1, 87.3, 87.6, 77.4, 108, 85.4, 89.7 (2×), 94.5, 83.7, 93.7, 69.4, 95.8, 86.8%"}, {"measurement": "viability, T/C", "setting": "compound alone 10 µM", "value": "79, 87.6, 82.8, 85.7, 79.8, 80.1, 81.3, 88.1 (2×), 85.3, 85.1, 78.4, 83.4, 78.2, 80.4, 83.3, 93.4, 94.1, 76, 72.4, 81.1, 60.6, 73.2, 87.4, 70.3%"}]}
{"smiles": "CC1(C)CCC(CN2CCN(c3ccc(C(=O)NS(=O)(=O)c4ccc(NCC5CCOCC5)c([N+](=O)[O-])c4)c(Oc4cnc5[nH]ccc5c4)c3)CC2)=C(c2ccc(Cl)cc2)C1", "values": [{"measurement": "viability, T/C", "setting": "compound alone 10 µM", "value": "53.9% [2022-01] and 1.23% [2022-02]"}]}
{"smiles": "CC1COCCN1c1cc(-c2ccnn2C)c2ccnc(-c3ccn[nH]3)c2n1", "note": "(stereo not drawn)", "values": [{"measurement": "IC50", "value": "50.7 nM [2022-01] and < 3.16 nM [2022-02]"}]}
{"smiles": "NC1CCC(NC2CC2c2ccccc2)CC1", "note": "(stereo not drawn)", "values": [{"measurement": "viability, T/C", "setting": "compound alone 0.1 µM", "value": "110, 100 (2×), 103 (3×), 99.4, 92.3, 98.8, 86.9, 112, 96.6, 92.9, 93.9, 104, 121, 101, 97.8, 95.9, 105, 87.8%"}, {"measurement": "viability, T/C", "setting": "compound alone 0.316 µM", "value": "95.5, 107, 99.6, 110 (2×), 97.8, 103, 84.5%"}, {"measurement": "viability, T/C", "setting": "compound alone 1 µM", "value": "79.4, 93.5, 88.7, 93.7, 108, 103 (2×), 99.1, 86.9, 89.2, 79.8, 96.4, 98.1, 92.7, 87.5, 77.8, 92.2, 90.5, 86.6, 88, 97.1, 95.2, 80.3, 95.4%"}, {"measurement": "viability, T/C", "setting": "compound alone 3.16 µM", "value": "84.3, 81.7, 102, 88.3, 91, 86.3, 92.7, 90.6, 86.1 (2×), 87.2, 107, 85.3, 80.4, 87.7, 97.2, 79.5, 82.1, 90.9, 89.1, 91.8, 100, 88.7, 88.6%"}, {"measurement": "viability, T/C", "setting": "compound alone 10 µM", "value": "77.4, 67.2, 78.4 (2×), 77.1, 90.6, 95.7, 89.3, 77.7, 89.4, 87.4, 81.7, 81.4, 76.7, 78.7, 86.5 (2×), 85.4, 78.8, 81.9, 80.5, 91.4, 65.1%"}]}
{"smiles": "CC(C)CC(NC(=O)C(Cc1ccccc1)NC(=O)c1cnccn1)B(O)O", "note": "(stereo not drawn)", "values": [{"measurement": "viability, T/C", "setting": "compound alone 0.001 µM", "value": "102% [2022-01] and 0.43% [2022-02]"}]}
